Experimental data as given in the supplement of paper PMC10126150.
Sequences with one replicate were seen in a single cluster, so their values are uncertain.

tested on: ATP; assay: switch fluorescence ratio, 500 uM ATP over buffer (Cy3 cluster intensity, sum of 5 cycles each) (fold (ratio)); higher = stronger signal-on switching upon ATP binding; sequences stand for … in TCGTCGGCAGCGTCAGATGTGTATAAGAGACAGTTTTTTTTTTTTTTTTTTTTTTTTT…TC; details: aptamer strand: ATP DNA aptamer (quencher-CACCTGGGGGAGTATTGCGGAGGAAGG + anchor), 100 nM annealed; ATP concentration: 500 uM; one replicate
In short: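 Clusters carrying Cy3-labelled switching strands on a modified Illumina MiSeq flow-cell were annealed to 100 nM quencher-labelled ATP aptamer and imaged in selection buffer. They were imaged again after 15 min with 500 uM ATP at 22 °C, over five buffer/ATP cycles with NaOH stripping and re-annealing in between. For each cluster, the fluorescence ratio is the summed Cy3 intensity of the target cycles divided by that of the buffer cycles, averaged per switch-domain sequence. Clusters outside 100-1000 RFU were left out.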
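Note: ATP exposure 15 min at 22 °C before imaging.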

Sequence | switch fluorescence ratio
TGCCTACACT | 1.03
TGCCTCATTT | 1.03
TGCCTTATCA | 1.02
TGCCTTATTG | 0.951
TGCCTTGGCA | 1.04
TGCCTTGTAG | 0.986
TGCGAATTTT | 1.01
TGCGACGTT | 1
TGCGAGTGAT | 1.03
TGCGATATTC | 1.45
TGCGATTTCA | 0.999
TGCGCAGCTA | 1.03
TGCGCGAGAG | 1.24
TGCGCGCCTC | 1.01
TGCGCGGCTA | 0.987
TGCGCGTGGG | 1.01
TGCGCTAACG | 1.04
TGCGCTACGC | 1.03
TGCGCTCTCT | 0.969
TGCGCTGGGG | 1.02
TGCGGAAAAT | 0.998
TGCGGCACAA | 1.07
TGCGGCCTGT | 0.986
TGCGGGCCAC | 0.981
TGCGGTTCCA | 1
TGCGTACGGT | 1.01

Sequence | switch fluorescence ratio
TGCGTTGTTC | 1.03
TGCGTTGTTT | 1.14
TGCGTTTCAG | 0.953
TGCGTTTTCT | 0.957
TGCTAATGCT | 1
TGCTACTGG | 0.994
TGCTACTTCA | 1.04
TGCTAGGTCT | 0.979
TGCTATAGTC | 1.08
TGCTCATTTA | 1
TGCTCCGACG | 1.85
TGCTCCTTGT | 0.977
TGCTCTGTAA | 2.44
TGCTCTTTGT | 1.03
TGCTGAATTC | 0.911
TGCTGCCGCG | 1.02
TGCTGGAGTT | 0.987
TGCTGGGTGT | 1.04
TGCTGGTGCA | 1.02
TGCTGTGGGT | 1.03
TGCTTAACCG | 1.04
TGCTTAGTAA | 1.03
TGCTTATTAA | 0.958
TGCTTGAAGC | 0.99
TGCTTGTTGA | 1
TGCTTTACAC | 1.01

Sequence | switch fluorescence ratio
TGCTTTATAA | 1.03
TGCTTTATTT | 1.04
TGCTTTCGGA | 0.978
TGCTTTGACT | 0.972
TGCTTTTCGA | 1.02
TGCTTTTGAC | 1.06
TGCTTTTGCC | 0.953
TGGAAAATGG | 0.95
TGGAAAGAGG | 1.04
TGGAACGGGC | 0.99
TGGAAGACTA | 0.992
TGGAAGCCG | 0.962
TGGAAGGAAA | 1
TGGAAGTAAC | 1.07
TGGAATAAGT | 1.02
TGGAATCGTG | 1.02
TGGAATTCCA | 1.02
TGGACCCGAG | 1.02
TGGACGGAAT | 2.2
TGGACGGGAT | 0.967
TGGACGTTA | 1.13
TGGACTCTTG | 0.996
TGGACTGGAG | 0.969
TGGACTTACA | 1.31
TGGAGATCAG | 1.02
TGGAGATCAT | 0.992

Sequence | switch fluorescence ratio
TGGAGCAGC | 1.18
TGGAGGAGGC | 1.15
TGGAGGGCAG | 0.998
TGGAGGGG | 0.996
TGGAGGTTTC | 1.02
TGGAGTCGGA | 1.03
TGGATACCTT | 1.01
TGGATAGGGA | 0.991
TGGATATGCT | 0.994
TGGATGAAAG | 0.98
TGGATGTAGT | 0.986
TGGATTAATT | 1.01
TGGATTCATA | 1.21
TGGATTCTGG | 0.971
TGGATTGTGC | 0.871
TGGATTTCTT | 1.07
TGGATTTGTT | 0.946
TGGCAAAGAA | 1.01
TGGCAATAGG | 1.25
TGGCACAAAA | 1.04
TGGCACCAGG | 1.8
TGGCAGAA | 0.952
TGGCAGTCGA | 1.05
TGGCATCCCT | 1.01
TGGCATGAGA | 1.03
TGGCCAATTC | 1.01

Sequence | switch fluorescence ratio
TGGCCAGCAC | 1.07
TGGCCAGGA | 0.978
TGGCCAGGCG | 1.04
TGGCCCACTC | 1.02
TGGCCCTTTA | 1.01
TGGCCTAAAT | 1.05
TGGCCTAACA | 1.02
TGGCCTTTAA | 0.991
TGGCGAAGCG | 1.01
TGGCGCTACT | 1.09
TGGCGCTCAC | 1.13
TGGCGGAGCT | 1.01
TGGCGGCCGG | 0.964
TGGCGGGACC | 0.988
TGGCGGGAGC | 1.01
TGGCGGTC | 1.05
TGGCGGTGGG | 1
TGGCGTAAAT | 0.989
TGGCGTCGTG | 0.947
TGGCGTTCCC | 0.957
TGGCTCCCAG | 1.04
TGGCTCTATC | 0.985
TGGCTCTTGT | 1.01
TGGCTGCAT | 1.47
TGGCTGCATT | 1.08
TGGCTGGCCG | 1.01

Sequence | switch fluorescence ratio
TGGCTGGTTA | 0.957
TGGCTGTTCT | 1.01
TGGCTTCGCA | 1.14
TGGCTTGAAT | 1.04
TGGGAAGAAC | 0.969
TGGGAAGTG | 0.985
TGGGACTGTG | 1.04
TGGGAGATCA | 1.02
TGGGAGTTTG | 0.99
TGGGATCAAA | 1
TGGGATCCGG | 1.02
TGGGATGGCA | 0.948
TGGGATGTAA | 1.03
TGGGCGTTGG | 0.978
TGGGCTAGAG | 1.03
TGGGCTGCAT | 1.01
TGGGCTTCAG | 0.984
TGGGCTTGGG | 0.953
TGGGCTTGTG | 0.919
TGGGGACAAC | 0.953
TGGGGACAGA | 0.965
TGGGGCAACT | 1.02
TGGGGCACTA | 0.992
TGGGGGCGCA | 0.954
TGGGGTCAA | 1.56
TGGGGTCCCA | 0.981

Sequence | switch fluorescence ratio
TGGGGTTAC | 1
TGGGTAAACT | 1.08
TGGGTAGACG | 1.02
TGGGTATGAT | 1.01
TGGGTCCAG | 0.965
TGGGTCGGTA | 0.994
TGGGTCTGCA | 1.04
TGGGTCTTTA | 1.02
TGGGTGAACG | 1.01
TGGGTTGCCA | 0.96
TGGTAAAGTT | 0.967
TGGTAAGACA | 1.03
TGGTACTGAT | 1.06
TGGTATGTTA | 1.07
TGGTATTGTA | 1.02
TGGTCAAGC | 0.981
TGGTCATATT | 0.984
TGGTCCGTTG | 0.992
TGGTCGCTAA | 1.01
TGGTCGGCGA | 1.02
TGGTCGGT | 0.965
TGGTCGTATG | 0.956
TGGTCGTTT | 0.979
TGGTCTTTAC | 1.02
TGGTGAACTT | 0.999
TGGTGACTTT | 0.982

Sequence | switch fluorescence ratio
TGGTGAGTCC | 0.965
TGGTGATTG | 1.01
TGGTGCGCTT | 1.02
TGGTGGTGAC | 0.963
TGGTGGTTGG | 1.01
TGGTGTAATA | 1.01
TGGTGTACCC | 0.989
TGGTGTAGTC | 0.995
TGGTGTGAAA | 1.02
TGGTGTGTGA | 1.05
TGGTGTTTCG | 0.98
TGGTTAAGAC | 0.985
TGGTTAGCT | 0.997
TGGTTAGGAG | 0.978
TGGTTCATTT | 1.06
TGGTTGCGTC | 1.02
TGTAAACCAT | 0.965
TGTAATAACC | 1
TGTAATCCGA | 0.992
